# From paper PMC4336329 (PLoS ONE, 2015)
# Out of some 310,000 compounds screened, about 14,000 (4.5%) showed an effect of 50% or more. The effect is printed as a negative number. This is one part of the list.
# Biological target: human ether-à-go-go-related gene (hERG) potassium channel (human, UniProt Q12809)
# Experiment: primary screen, population patch clamp on CHO cells stably expressing hERG
# 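Further: peak tail current of the secondary pulse compared with the same well before compound.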
# Chain of human ether-à-go-go-related gene (hERG) potassium channel (Q12809 whole entry, looked up): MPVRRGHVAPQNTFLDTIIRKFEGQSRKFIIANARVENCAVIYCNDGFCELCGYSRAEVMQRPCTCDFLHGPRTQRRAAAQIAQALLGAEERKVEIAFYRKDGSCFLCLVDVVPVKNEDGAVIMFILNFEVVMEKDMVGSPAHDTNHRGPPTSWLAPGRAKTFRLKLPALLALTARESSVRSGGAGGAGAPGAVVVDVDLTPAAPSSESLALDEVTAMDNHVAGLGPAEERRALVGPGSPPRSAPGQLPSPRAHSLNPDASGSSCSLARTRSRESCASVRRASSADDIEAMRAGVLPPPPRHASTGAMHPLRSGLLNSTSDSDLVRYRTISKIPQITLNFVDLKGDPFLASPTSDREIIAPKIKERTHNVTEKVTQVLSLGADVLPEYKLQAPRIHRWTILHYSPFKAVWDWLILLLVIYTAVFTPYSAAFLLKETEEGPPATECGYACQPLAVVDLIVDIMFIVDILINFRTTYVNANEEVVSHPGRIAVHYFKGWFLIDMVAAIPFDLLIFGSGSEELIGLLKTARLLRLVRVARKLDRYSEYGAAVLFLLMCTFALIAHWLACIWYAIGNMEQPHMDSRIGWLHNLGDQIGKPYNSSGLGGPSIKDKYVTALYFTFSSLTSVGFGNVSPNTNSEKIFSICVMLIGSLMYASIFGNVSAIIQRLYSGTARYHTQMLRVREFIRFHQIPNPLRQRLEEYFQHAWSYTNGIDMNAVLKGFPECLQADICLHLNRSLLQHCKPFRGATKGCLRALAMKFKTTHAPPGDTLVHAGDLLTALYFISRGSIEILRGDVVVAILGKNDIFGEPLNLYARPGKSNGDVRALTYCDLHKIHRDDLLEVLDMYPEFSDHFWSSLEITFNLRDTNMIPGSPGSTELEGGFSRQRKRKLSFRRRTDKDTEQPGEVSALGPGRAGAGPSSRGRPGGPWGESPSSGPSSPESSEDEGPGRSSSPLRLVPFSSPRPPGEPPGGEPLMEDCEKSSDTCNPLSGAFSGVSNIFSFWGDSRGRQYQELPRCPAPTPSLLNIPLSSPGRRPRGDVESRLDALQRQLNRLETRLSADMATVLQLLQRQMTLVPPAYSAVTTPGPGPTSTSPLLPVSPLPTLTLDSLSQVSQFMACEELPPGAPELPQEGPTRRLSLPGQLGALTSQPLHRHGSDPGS
row,SMILES,"hERG current change (%, negative = inhibition) at 10uM"
1,O=C1c2ccccc2C(=O)N1OCCOCCOCCBr,-7.05%
2,COc1ccc(OC)c(CN2CCN(CCc3ccccc3)C(CCO)C2)c1 (stereo not drawn),-60.6%
3,COc1cccc(CNC(=O)CCNC(=O)C2CCN(S(=O)(=O)c3ccccc3)CC2)c1,-31.1%
4,Cc1ccc(OCC(=O)c2cc(C)n(CC(F)(F)F)c2C)c([N+](=O)[O-])n1,13.1%
5,COc1ccc(NC(=O)CSc2nnc3ccc(-c4ccccn4)nn23)c(OC)c1,7.47%
6,CCOC(=O)C1=C(CSc2nc3ccccc3s2)NC(=O)NC1c1cccc([N+](=O)[O-])c1 (stereo not drawn),5.64%
7,CC(C)NC(=S)NNC(=O)C12CC3CC(CC(C3)C1)C2,-8.78%
8,CC(C)N(C(=O)N1CCC(c2nc(-c3ccncc3)no2)CC1)C(C)C,-15.3%
9,CC(=O)Nc1cc(NC(C)=O)cc(-c2nc3ccccc3[nH]2)c1,3.84%
10,CCOc1ccccc1NC(=O)/C(C#N)=C/c1c(C)nn(-c2ccc(F)cc2)c1Cl,4.46%
11,COc1ccc(C(=O)NC2CCN(C(=O)Nc3ccccc3Cl)CC2)cc1,11.2%
12,COC(=O)C1=NNC2(c3ccc(C)cc3)C(=O)N(c3cccc(C)c3C)C(=O)C12 (stereo not drawn),-0.695%
13,COC(=O)[C@H](Cc1ccccc1)NC(=O)[C@@]1(C)C[C@@H]1[C@@H](NC(=O)OCc1ccccc1)c1ccccc1,-46.7%
14,COc1ccc(Nc2nnc(SC(C(=O)Nc3ccc(OC)c(Cl)c3)c3ccccc3)s2)cc1 (stereo not drawn),20.2%
15,CN(C(=S)NC1CCCCC1)C1(c2ccccc2Cl)CCCCC1=O (stereo not drawn),2.15%
16,Cn1c(=O)c2c(SCC(=O)c3ccccc3)nc(C3CC3)nc2n(C)c1=O,8.36%
17,COc1ccc(/C=C2\SC(=O)N(CC(=O)NNC(=O)c3ccccc3O)C2=O)cc1OC,-7.98%
18,CCN(CC)S(=O)(=O)c1ccc(C(=O)NCc2cccs2)cc1,-20.7%
19,Nc1cc(N)nc(SCc2cc(=O)oc3cc4c(cc23)CCC4)n1,-2.97%
20,COC(=O)COc1cccc(NC(=O)c2cccc(C)c2)c1,-0.144%
21,CCCCOc1ccc(CC(=O)NO)cc1,15.8%

row,SMILES,"hERG current change (%, negative = inhibition) at 10uM"
1,Cc1ccc(-n2c(SCC(=O)Nc3cccc(S(=O)(=O)NC4=NCCCCC4)c3)nc3ccccc3c2=O)cc1C,3.17%
2,O=P(O)(O)Oc1ccccc1P(=O)(c1ccccc1)c1ccccc1,13.4%
3,CCN1CCN(C(c2cccs2)C(C)NC(=O)c2ccccc2F)CC1 (stereo not drawn),-4.23%
4,CCNc1nc(NC(C)C)nc(SCCOc2ccc(C)cc2)n1,-4.78%
5,CC1CCCCN1C(=O)/C=C/c1ccccc1[N+](=O)[O-] (stereo not drawn),-3.59%
6,CCn1c(SC(C)C(=O)Nc2ccc(N3CCOCC3)cc2)nnc1-c1ccco1 (stereo not drawn),-6.42%
7,Cc1ccc(NC(=O)CS(=O)CC(=O)N(CC(=O)NC2CCCC2)c2ccc3c(c2)OCCO3)cc1 (stereo not drawn),18%
8,Cc1ccsc1/C=N/N1CCN(C2c3ccccc3-c3ccccc32)CC1,18.1%
9,CCOc1ccc(OCC(=O)Nc2ccccc2N2CCCC2)cc1,-13.5%
10,Cc1cc(CNC(=O)Cn2nc(C)c([N+](=O)[O-])c2C)c2ccccc2n1,1.76%
11,Cc1nn(CCC(=O)NCc2ccc(N(C)C)cc2)c(=O)c2nn(-c3ccccc3)c(C)c12,3%
12,COc1ccc(-c2nn(-c3ccccc3)cc2/C=C/C(=O)OCC(=O)Nc2ccccc2C#N)cc1,2.21%
13,COC(=O)Cc1csc(Nc2ccc(F)c(Cl)c2)n1,-3.05%
14,CCCc1nc2ccc(N)cc2c(=O)n1Cc1ccccc1Cl,-14.7%
15,COc1ccc(-n2nc3c(N4CCC(C(=O)NCc5ccccc5C)CC4)nnc(C)c3c2C)cc1,-20.6%
16,CC(=O)c1ccccc1NS(C)(=O)=O,8.19%
17,O=C(Nc1ccc(C(=O)N2CCC(O)(c3ccc(Cl)c(C(F)(F)F)c3)CC2)cc1)c1ccc(Br)o1,8.21%
18,O=C(Nc1nnc(C2CCCO2)s1)c1ccc(Br)cc1 (stereo not drawn),-5.9%
19,CCCCCOC(=O)C1[C@H]2C(=O)N(c3ccccc3CC)C[C@]23C=C[C@H]1O3 (stereo partly drawn),1.26%
20,FC(F)(F)Oc1ccc(NC(=S)NCc2ccccc2)cc1,4.62%
21,CCc1nc(NC(=O)NS(=O)(=O)c2ccccc2C(=O)OC)nc(OC)n1,32.3%

row,SMILES,"hERG current change (%, negative = inhibition) at 10uM"
1,CCOC(=O)c1c(C)oc2ccc(OCc3cc(C(=O)OC)oc3C)cc12,2.78%
2,COc1ccc(-c2nc(C#N)c(NCCCn3ccnc3)o2)cc1OC,-1.58%
3,COc1ccccc1/C=C/C(=O)OCC(=O)Nc1ccc2c(c1)OCCO2,1.23%
4,COC(=O)c1ccc(C(NC(=O)OCc2ccccc2)/C(C)=C/[C@@H](C)C(=O)NCc2ccc(OC)c(OC)c2)cc1 (stereo partly drawn),-6.64%
5,O=C(Nc1ccccc1)N1CCC(=S)Nc2ccccc21,-0.471%
6,COC(=O)c1cc2occc2n1CC(=O)Nc1ccc(C)cc1C,14.1%
7,COc1ccc(CN2CCN(C(=O)C3CCC(CNS(=O)(=O)c4ccccc4)CC3)CC2)c(OC)c1OC (stereo not drawn),-40.6%
8,O=C(C1CCN(c2nnc(-n3cccc3)s2)CC1)N1CCc2ccccc2C1,-60.3%
9,CC(C)(C)NC(=O)C1CCN(S(=O)(=O)c2ccc(Br)cc2)CC1,2.91%
10,CNC(=O)CN(c1ccc(OC)cc1)S(=O)(=O)c1ccc(F)cc1,-1.59%
11,CCOC(=O)c1ccc(NC(=O)C2CC(=O)N=C(N)S2)cc1 (stereo not drawn),9.4%
12,CCCCC(=O)Nc1nnc(SCC(=O)NCC2CCCO2)s1 (stereo not drawn),-24.8%
13,O=C(Nc1nccs1)c1ccc(COc2c(F)c(F)cc(F)c2F)cc1,20%
14,O=C(c1cccs1)N1CCC2(O)CCCCC2C1c1ccc(F)cc1 (stereo not drawn),1.06%
15,NCCS(=O)(=O)O,37.3%
16,Cc1ccc(S(=O)(=O)N(C)C)cc1NC(=O)COC(=O)CN1C(=O)c2ccccc2C1=O,1.85%
17,Cc1csc(NC(=O)CCn2c(=O)oc3ccc(Cl)cc32)n1,2.72%
18,O=C(O)CCCNS(=O)(=O)/C=C/c1ccccc1,13.2%
19,Cc1cc(NC(=O)CSc2nccn2-c2ccc([N+](=O)[O-])cc2)no1,-4.72%
20,COC(=O)c1sccc1NC(=S)N1CCCCC1C (stereo not drawn),-25.6%
21,O=C(O)c1cc(-c2ccc3c(c2)OCO3)nc2ccccc12,2.33%

row,SMILES,"hERG current change (%, negative = inhibition) at 10uM"
1,CN(C(=O)c1ccccc1C(=O)OCC(=O)Nc1cccc(Br)c1)c1ccccc1,-6.15%
2,CCC(C(=O)N1CCN(c2ccccn2)CC1)n1nc(C)n2c(cc3occc32)c1=O (stereo not drawn),-5.95%
3,OC1CCN(C(=S)NCCc2ccccc2)CC1,-0.627%
4,CCCN(CC(=O)Nc1ccccc1OC)C(=O)CSc1ccc(Br)cc1C,-16.1%
5,O=C(NC(=S)N1CCN(C/C=C/c2ccccc2)CC1)c1ccco1,-35%
6,CC(C)(O[C@@H]1O[C@H](CO)[C@@H](O)[C@H](O)[C@H]1O)[C@H]1Cc2cc3ccc(=O)oc3cc2O1,13.6%
7,CCOC(=O)CC(NC(=O)Cn1nnc(-c2ccccc2F)n1)c1ccc(OC)cc1 (stereo not drawn),-4.07%
8,O=C(Cc1csc(Nc2nc(=S)[nH]c3ccccc23)n1)NCc1ccc(Cl)cc1,-2.07%
9,CCN(CC)S(=O)(=O)c1ccc(N2CCOCC2)c(NC(=O)C(C)Oc2ccc(F)cc2)c1 (stereo not drawn),3.94%
10,Cc1ccc(CN2CCN(Cc3ccncc3)CC2CCO)o1 (stereo not drawn),-8.3%
11,COc1ccccc1NS(=O)(=O)c1ccc(Cl)c(NC(=O)CN2C(=O)c3ccccc3C2=O)c1,-44.4%
12,CC(C)CNP(=S)(c1ccccc1)C(C)(C)C (stereo not drawn),-3.31%
13,O=C(CCC1CCCN(C(=O)c2ccccc2Cl)C1)N1CCN(c2ccccn2)CC1 (stereo not drawn),-10.7%
14,CC1CCN(C(=O)CC#N)CC1,14.5%
15,COc1cccc(CNC(=O)COc2cccc(-n3cnnn3)c2)c1,-18.9%
16,CCOC(=O)N1CCN(c2ccc(N3C(=O)CCCC3=O)cc2[N+](=O)[O-])CC1,40.8%
17,NC(=O)[C@@H]1CCCCNc2c(I)cc([N+](=O)[O-])cc2C(=O)N[C@@H](CCC(=O)O)C(=O)N[C@@H](CO)C(=O)N1,-1.35%
18,COc1ccc(CNC(=O)N[C@@H](CC(C)C)C(=O)O)cc1OC,-0.247%
19,COc1ccc(C(=O)NC(C)c2csc(C)n2)cc1OC1CCN(C(C)=O)CC1 (stereo not drawn),15%
20,O=C(CCC1CCCN(C(=O)c2ccc3[nH]ccc3c2)C1)N1CCN(c2ccccn2)CC1 (stereo not drawn),21.6%
21,O=C(NCC(c1ccco1)N1CCOCC1)c1ccc(Cl)cc1 (stereo not drawn),-0.209%
